Reference: the supplement of paper PMC10126150
Values marked as one replicate rest on one cluster of the flow cell; about a third of the high ones do not repeat.

Test system: ATP
Assay: switch fluorescence ratio, 500 uM ATP over buffer (Cy3 cluster intensity, sum of 5 cycles each) (fold (ratio)); higher = stronger signal-on switching upon ATP binding; sequences stand for … in TCGTCGGCAGCGTCAGATGTGTATAAGAGACAGTTTTTTTTTTTTTTTTTTTTTTTTT…TC
Conditions: aptamer strand: ATP DNA aptamer (quencher-CACCTGGGGGAGTATTGCGGAGGAAGG + anchor), 100 nM annealed; ATP concentration: 500 uM; one replicate
How it was run: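 Per cluster, summed Cy3 intensity from the target cycles was divided by that from the buffer cycles to give the fluorescence ratio, then averaged per switch-domain sequence. Clusters outside 100-1000 RFU were excluded. The Cy3-labelled switching-strand clusters, on a modified Illumina MiSeq flow-cell, were annealed to 100 nM quencher-labelled ATP aptamer and imaged in selection buffer, then after 15 min with 500 uM ATP at 22 °C, for five cycles with NaOH stripping and re-annealing between them.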
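Note: ATP exposure 15 min at 22 °C before imaging.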

Sequence | switch fluorescence ratio
ATATTAGTG | 0.947
CTACAATTCT | 1.06
GTAGATTTCA | 0.973
GTTCAACGTG | 0.941
TGCAAGACGT | 1.93
ATCAGAGAGG | 1.01
CCAGTATGG | 1.01
GAGATTCTAC | 0.973
ACGCCATTAT | 0.977
TTGAAAGTGG | 0.973
GAAAGAGAGA | 1.01
GTAAAGAAGC | 1.03
CACGCTGATA | 1.11
CAGTACACTG | 1.09
AATCCTGTG | 1.04
AAGATTGTGG | 0.939
AGGGGCTTAA | 1.02
CGTTTATTAA | 1.01
CTACATGAGA | 1.02
GTGATGTATG | 0.97
CTTCTCACAG | 0.989
TCTCGGTTTC | 1.04
TTAGCGCTT | 0.983

Sequence | switch fluorescence ratio
CTGGACAGAT | 1.02
CGATAGACCT | 1.18
TCCGGCGTA | 0.992
AAACTAAGGA | 0.99
GCAGTCGGCA | 0.991
ACATGTCTTG | 1.07
AAGTATTGTA | 0.969
ACACATATCT | 1.02
TTTTTACAA | 1
ATGTCCTCTG | 0.995
TTTCGTTAAG | 1.02
CGATTTTCAG | 0.955
AAAAGCTTGG | 1
ACAGGAAAG | 1.02
GATAATCGGT | 0.963
GGCACGGTGC | 1.01
TAAGAAAAAG | 1.11
ATCGAGTTTG | 0.961
GCGTTCGGCG | 1
AACGAGACTA | 1.02
AGAAGTAGGA | 1.01
TCTAGGGCAG | 0.997
GAGGATGGCC | 0.972

Sequence | switch fluorescence ratio
ACTTGCGTAG | 1.04
GCCATAGGGG | 1.06
AATTTAATCG | 0.984
GGAGAAACCT | 2.67
TTTTCAGGGA | 1
CCTTTATTCT | 1.02
GCGCTGCCA | 1.05
GTTGCTCCCT | 1.06
CGCTCTACTT | 1.4
AAAAGCCGAG | 1
GATCCCCAAA | 0.966
TTTCTTCTGG | 1.02
TTTCACGG | 0.969
CCGGACCCGG | 1.07
CAATACGAGG | 1.38
ACGTGCTTCC | 1.86
GACCGCACGT | 1.53
TAGTCTCGTA | 0.974
GATATCCTCT | 0.984
CAGTGTTCTT | 0.994
TACACACTGG | 1.11
TGCTAGGACA | 1.05
TATGCGCCCT | 0.985

Sequence | switch fluorescence ratio
GACTTGGTGA | 1.03
CGATTCTACG | 1.01
CATTTTCGGG | 0.982
TGTTGCCT | 1
ATAGAACAAA | 1
AACGCGAAAG | 1.12
GTTAGGAGGA | 0.989
GCTGATTTGG | 0.978
GATGAACTCT | 1.01
ATCACATCCC | 1.03
CGGTAGGGCC | 0.973
ATTATATGTT | 1.02
CCTAATTGGT | 0.98
CATTTGTCAG | 0.97
TATGATATGA | 1.02
TCTGCTGGGC | 1.04
TTACGGTGGG | 0.974
AAGGGAAGGA | 1.03
AAAAGTTTTA | 0.996
GGGAAGCTCG | 0.95
CGTAACTCCA | 1.23
TCCTTTCTAA | 0.996
TAGGCACTTA | 1.06

Sequence | switch fluorescence ratio
CGGGAACGAT | 1.04
GGTTGGATT | 0.994
TAATTCCAGC | 1
ATTCTATTTG | 0.946
AGCCAATGCC | 1.12
GGACTCGTTG | 1.03
CGTATCCCGA | 1.02
ACGCCTCTGA | 1.13
CGCGAATGGG | 1.03
AAAGACCGAG | 1
ATGTATGGTC | 0.993
ATGAGGATTC | 1.02
TACAACCCCA | 1.02
TTCGCCAATT | 0.996
TGAGGTTCAC | 1.39
CCAGTACTGT | 0.991
AAGGCCCGTG | 1.02
AATGGATCTA | 1
TCGCGGTGCT | 1.66
ATCGTTCTAA | 1.02
CTCTTAGGGT | 1
TGGGTCGCCA | 1.01
ATGCTCGACT | 1.03

Sequence | switch fluorescence ratio
ATCGTTCTAC | 1
CGGTGCAGCG | 1.02
AAGCAAGTGG | 1.03
TCGGAAAGTC | 0.978
CTACGTTGAC | 2.19
CGCCACATCC | 1.11
CTGAAAGAAC | 1.03
CCTTGACGGC | 1.11
CGTAAGGCCC | 1.47
AACCTGTTCT | 0.992
TTATATCACC | 1.05
GGACGAC | 1.02
ACCAATGCAC | 1.19
TCAACCATTC | 1.01
ATTGAATGAT | 1.04
TCTTCAAGAA | 0.988
TACCGCGCTC | 2.16
CTAGTACTTA | 1.02
CTATTAACGT | 1.03
CAATTACCTT | 1.05
CGAGTACG | 0.988
GGCTGTCCAA | 0.991
TTTGGGAACC | 1.02

Sequence | switch fluorescence ratio
GTTGGTGGCA | 1
GAGATATGCG | 1.06
TGTTTTTCCA | 1.02
CCGCTCTGGG | 1.18
TTGAACATTT | 1.01
TCATGAGC | 0.991
GAGGGAATAG | 1.53
GGGCTGATGG | 1.02
TTCGCACCCT | 1.13
GGGCAGCCGA | 1.06
GCCGCATCCA | 1.11
TTAAGTCAGC | 1.05
TACGCGTTTA | 1.03
TACCAGCCAG | 1.04
AGTGGTACTT | 1.01
ACGGAGTATG | 0.983
TTCGGTACG | 0.987
GCTTGCGTCC | 0.977
TCCTTGATAA | 1.04
